Measurements taken from article PMC4336329 (PLoS ONE, 2015).
Among all 310,000 compounds or so, about 2,200 (0.71%) showed an effect of 50% or more. The effect is printed as a negative number. The list shows a part of the results.

These molecules were tested against human ether-à-go-go-related gene (hERG) potassium channel (human, UniProt Q12809) (assay: primary screen, population patch clamp on CHO cells stably expressing hERG).
human ether-à-go-go-related gene (hERG) potassium channel, sequence (Q12809 whole entry, looked up): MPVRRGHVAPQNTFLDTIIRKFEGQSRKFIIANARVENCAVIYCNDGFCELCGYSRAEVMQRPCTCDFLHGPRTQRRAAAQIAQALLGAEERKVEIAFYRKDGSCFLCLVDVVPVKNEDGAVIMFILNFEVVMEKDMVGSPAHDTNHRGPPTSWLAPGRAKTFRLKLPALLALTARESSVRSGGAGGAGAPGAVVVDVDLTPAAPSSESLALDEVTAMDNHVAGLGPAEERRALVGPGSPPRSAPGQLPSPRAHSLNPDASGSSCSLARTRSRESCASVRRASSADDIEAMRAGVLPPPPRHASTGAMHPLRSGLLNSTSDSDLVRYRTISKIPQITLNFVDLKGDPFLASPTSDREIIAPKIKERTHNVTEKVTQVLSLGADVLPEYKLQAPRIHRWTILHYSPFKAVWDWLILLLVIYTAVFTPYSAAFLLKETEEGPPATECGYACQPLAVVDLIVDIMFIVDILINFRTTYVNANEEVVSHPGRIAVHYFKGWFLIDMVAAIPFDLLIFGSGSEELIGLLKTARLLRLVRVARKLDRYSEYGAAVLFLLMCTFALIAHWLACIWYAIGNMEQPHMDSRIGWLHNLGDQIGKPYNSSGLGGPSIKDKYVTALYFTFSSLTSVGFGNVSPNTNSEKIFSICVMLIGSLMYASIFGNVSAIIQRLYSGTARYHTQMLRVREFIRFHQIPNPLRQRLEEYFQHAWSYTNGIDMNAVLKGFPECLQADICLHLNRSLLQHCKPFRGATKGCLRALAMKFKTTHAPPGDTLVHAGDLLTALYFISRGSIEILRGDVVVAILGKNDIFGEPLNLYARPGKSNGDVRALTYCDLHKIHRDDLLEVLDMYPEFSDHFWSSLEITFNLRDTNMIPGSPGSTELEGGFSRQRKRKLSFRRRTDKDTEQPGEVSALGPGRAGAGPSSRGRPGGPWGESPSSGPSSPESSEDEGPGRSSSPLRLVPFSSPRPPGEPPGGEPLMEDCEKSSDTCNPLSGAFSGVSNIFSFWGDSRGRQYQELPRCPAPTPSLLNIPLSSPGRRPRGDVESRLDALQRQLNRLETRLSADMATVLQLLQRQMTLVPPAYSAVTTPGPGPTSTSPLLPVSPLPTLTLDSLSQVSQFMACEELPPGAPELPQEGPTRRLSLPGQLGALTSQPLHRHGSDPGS

Structure (SMILES)	hERG current change (%, negative = inhibition) at 1uM
COc1ccc(Cl)cc1NC(=O)CN1C(=O)CC(C)S(=O)(=O)c2ccccc21 (stereo not drawn)	4.52%
NC(=O)C1CCN(C(=O)CCc2nc3sc4c(c3c(=O)[nH]2)CCCC4)CC1	0.0328%
CC(C)(C)C1CCC(=O)C(C2(O)C(=O)Nc3ccccc32)C1 (stereo not drawn)	12.7%
C=CCn1c(Cc2csc(N)n2)nnc1SCC(=O)OCC	4.63%
COc1ccc(CN2CC[C@H]3C=CC[C@@H](C(=O)N4CCOCC4)[C@H]3C2=O)cc1OC	9.79%
CCC1Oc2ccccc2N(CC(=O)NCCN2CCc3ccccc3C2)C1=O (stereo not drawn)	0.326%
CCOCCCN(C(=O)CCC(=O)Nc1cc(C)on1)C(C(=O)NC(C)(C)CC)c1cccc(OC)c1OC (stereo not drawn)	11.5%
Cc1nc2ccccc2c(C)c1C(=O)c1ccccc1.Cl	11%
O=C1C2CC=C(Cl)CC2C(=O)N1CC1Cc2ccccc2CO1 (stereo not drawn)	10.5%
CC/C(=N\NC(=S)Nc1ccccc1)c1c(O)[nH]c(=O)[nH]c1=O	18.1%
NC(=O)Oc1cccc(OC(N)=O)c1	12.4%
COc1cc(C)c(C)cc1S(=O)(=O)N1CCCc2ccccc21	9.49%
CNC(=S)N/N=C(\C)c1ccc(Cl)s1	4.12%
CCC/C(=N/NC(=O)c1csc(C)c1C)c1ccc(Cl)s1	12.6%
CN(C)/C=C/C(=O)c1ccncc1	14%
O=C(CN1CCN(S(=O)(=O)c2ccc(F)cc2)CC1)Nc1ccc(F)cc1F	-36.4%
COc1ccc(N(CC(=O)NC(C)(C)C)C(=O)c2ccco2)cc1	4.11%
CN1CCN(CCc2nc3cc(NC(=O)c4ccco4)ccc3n2C)CC1	13.1%
Cc1ccc(Nc2nc(N)nc(CSc3nccn3C)n2)cc1	0.957%
COc1ccc(-c2nc(CS(=O)(=O)CC(=O)NCCCN3CCOCC3)c(C)o2)cc1	11.2%
CCC1CCc2c(n(C)c3ccccc3c2=O)O1 (stereo not drawn)	8.75%
CCCCOCCCNC(=O)c1ccc(OC)cc1	8.78%

Structure (SMILES)	hERG current change (%, negative = inhibition) at 1uM
CSc1nc(NS(=O)(=O)c2cc(C)c(Cl)cc2Cl)nn1C	8.02%
Cc1ccc(C(C)NC(=O)c2ccncc2)c(C)c1 (stereo not drawn)	11.3%
CCc1ccc(NC(=O)CS(=O)CC(=O)NC(C)CCc2ccco2)cc1 (stereo not drawn)	15.1%
O=c1c2ccccc2nc(CSc2nnnn2-c2ccccc2)n1-c1ccccc1Cl	16%
Cc1ccc(NC(=O)c2ccc([N+](=O)[O-])o2)c(C)c1	13.3%
Cc1ccc(NC(=O)CSc2nnc(COc3ccccc3C)o2)cc1	3.88%
O=C(OCC(=O)N1CCN(C(=O)c2ccco2)CC1)c1cc(-c2ccco2)nc2ccccc12	-38.3%
Cc1cccc(-n2c(O)c(C=NCCN3CCNCC3)c(=O)[nH]c2=S)c1	11.9%
COc1cc(/C=N/N2C(=O)C3C4c5ccccc5C(c5ccccc54)C3C2=O)ccc1O (stereo not drawn)	7.17%
O=C(CSc1nnc(CNC(=O)c2ccccc2)o1)NCc1ccccc1	10.2%
CCCc1c(C(=O)Nc2cc(C(C)(C)C)on2)cnn1-c1ccccc1	8.13%
O=C1NCC(c2ccccc2)C1C(=O)N/N=C\c1ccc(-c2cccc(Cl)c2Cl)o1 (stereo not drawn)	12.3%
COc1cc(/C=N/NC(=O)c2nnn(-c3nonc3N)c2C(C)C)ccc1OCc1ccccc1	14.8%
CCOc1ccccc1NC(=O)CSc1nc(N)c(C#N)cc1C#N	11.7%
COc1ccc(C(=O)COC(=O)c2nn(C)cc2Cl)cc1	20.8%
O=c1c2ccccc2nnn1CSc1nc2ccccc2c(=O)n1Cc1ccco1	13.6%
CC(C)N1C(=S)N(Cc2ccco2)C(=O)C1CC(=O)Nc1ccccc1 (stereo not drawn)	9.52%
CN1CCCC1CCNc1ccc2c(=O)c3ccccc3oc2c1 (stereo not drawn)	6.78%
CCCCCN(C(=O)CCC(=O)OCC(=O)N1CCC(C)CC1)c1c(N)n(CCCC)c(=O)[nH]c1=O	6.49%
Br.CC(C)(C)C(=O)CNCC(=O)C(C)(C)C	0.344%
O=C(CN1CCCCCC1)Nc1ccccc1.O=C(O)C(=O)O	10.2%
CCOC(=O)N1CCN(C(=O)c2ccc(CNS(=O)(=O)c3ccc(OC)cc3)cc2)CC1	3.7%

Structure (SMILES)	hERG current change (%, negative = inhibition) at 1uM
COC(=O)c1ccc(C)c(NC(=O)CSc2sc3c(O)cc(=O)[nH]c3c2C#N)c1	0.111%
COc1ccccc1OCC(=O)Nc1nc(C)c(C)s1	13.7%
Cc1noc(/C=C/c2ccco2)c1S(=O)(=O)N1CCC(C(=O)N2CCc3ccccc3C2)CC1	1.69%
COc1ccc(C(C[N+](=O)[O-])c2c(C)[nH]c3ccccc23)cc1OC (stereo not drawn)	24.1%
Cc1nn(CCCC(=O)Nc2cccnc2Cl)c(C)c1[N+](=O)[O-]	13.3%
CCCc1nnc(SCC(=O)O)n1/N=C/c1ccc2c(c1)OCO2	-1.6%
COc1cccc(-c2nc(CS(=O)(=O)CC(=O)NC3CCCCCC3)c(C)o2)c1	12.1%
CC(C)(C)C(=O)Nc1ccc(C(=O)N/N=C/c2ccccc2OC(=O)c2ccccc2)cc1	12.3%
Cc1cc(-c2cc(-c3ccccc3)on2)nc(NCC2CC2)n1	10.1%
Cc1cc(NC(=O)c2cc(-c3ccc(O)cc3)on2)no1	8.05%
COc1ccc2c(Cl)c(C(=O)NCC3CCCO3)sc2c1Cl (stereo not drawn)	12.7%
Cc1ccccc1Sc1c(C#N)c(-c2ccccc2)nn1C	13%
Cc1cccc(-n2c(SCC(=O)NC3CCCC3)nnc2-c2ccoc2C)c1	-68.6%
CC1=C(C(N)=O)C(c2ccc(Cl)cc2)NC(=O)N1 (stereo not drawn)	-0.388%
CCCCn1c(=S)[nH]c2cc(S(=O)(=O)N3CCCCC3)ccc21	10.8%
COc1ccc(OC)c(NC(=O)C2CCN(S(=O)(=O)c3ccc4c(c3)CC(C)N4C(C)=O)CC2)c1 (stereo not drawn)	-7.33%
COc1ccc(SCC(=O)Nc2ccccc2Cl)cc1	14.6%
Cn1nc([N+](=O)[O-])nc1Oc1ccccc1	-11.2%
Oc1ccccc1-c1nc2c3ccccc3c3ccccc3c2[nH]1	9.24%
COc1cccc(OC)c1C(=O)Nc1c(C(=O)N2CCN(c3ccccn3)CC2)oc2ccccc12	15.8%
Cc1cnc(C(=O)OCC(=O)N=c2sccn2Cc2ccccc2Cl)cn1	14%
COc1ccc([N+](=O)[O-])cc1NC(=O)Cc1noc2ccccc12	4.32%

Structure (SMILES)	hERG current change (%, negative = inhibition) at 1uM
CN1C(=O)CC(N2CCN(CC(N)=O)CC2)C1=O (stereo not drawn)	16.4%
CC(=O)N(CC(O)CO)c1c(I)c(C(=O)NCC(O)CO)c(I)c(C(=O)NCC(O)CO)c1I (stereo not drawn)	3.85%
O=C(CNC(=O)c1ccccc1F)NNC(=O)c1ccccc1O	0.202%
Cc1ccc(C(=O)NC2CCCc3ccccc32)o1 (stereo not drawn)	-7.4%
N=c1c(C(=O)NCc2ccco2)cc2c(=O)n3ccccc3nc2n1Cc1ccccc1	-81.6%
CN1CCc2c(sc(NC(=O)Cc3ccccc3)c2C(N)=O)C1.Cl	-0.304%
COc1cccc(CNC(=O)CCNS(=O)(=O)c2ccc(C)cc2)c1	6.83%
CCOC1(C)OCC(=O)[C@]2(CCC3C4CCC5=CC(=O)C=CC5(C)C4C(=O)CC32C)O1 (stereo partly drawn)	10.6%
S=c1[nH]nc(-c2ccc(Cl)cc2)n1/N=C/c1ccco1	14.7%
Cc1cc(=O)[nH]c(SCc2cc(=O)n3nc(C)sc3n2)n1	11.6%
C[C@H]1CCC(=O)N([C@H](CSc2ccccc2)Cc2ccccc2)CC1	2.76%
Cc1cc(C(F)(F)F)nc(NCc2ccc(F)cc2)n1	17.9%
O=C(CCn1c(=O)oc2ccccc21)N1CCC2(CC1)OCCO2	13.2%
C#CCCCc1nc2ccccc2c(=O)n1N	14.6%
CCCSc1ccc([C@@H]2[C@@H]3C(=O)N(C)C(=O)[C@@H]3[C@]3(C(=O)OC)CCCN23)cc1OC.O=C(O)C(F)(F)F	-4.11%
Cn1c(CCCOc2ccc(Cl)cc2Cl)nnc1SCC(=O)Nc1nccs1	-7.17%
COC(=O)[C@@]12CCCCN1[C@H](c1ccc(-c3cccc(Cl)c3)c(OC)c1)[C@H]1C(=O)N(C)C(=O)[C@H]12.O=C(O)C(F)(F)F	-0.257%
O=C(Nc1cccc2ccccc12)/C(=C/c1ccc([N+](=O)[O-])cc1)NC(=O)c1ccccc1	-8.4%
CC(Nc1ccccc1)C(=O)Nc1ccc(F)cc1 (stereo not drawn)	-14.8%
CCN(CC)S(=O)(=O)c1cccc(NC(=O)CN(C)C2CCCCC2)c1	13.9%
Cc1ccc(NC(=O)CN(C)Cc2ccc(F)cc2)c([N+](=O)[O-])c1	8.08%
